According to PubChem BioAssay (NCI):
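Each compound was tested at five concentrations against cells in 96-well plates for 48 hours. GI50 = concentration required for 50% inhibition of growth. TGI denotes the concentration required for complete inhibition of growth.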 Square brackets hold non-standard residues; d marks the D form. Peptide text beside a SMILES is read from it. ΔPro = O=C(O)[CH]1C=CCN1

System: NCI-H322M lung
Test: inhibition of tumour cell growth, NCI panel, 48 h

| Compound | TGI | GI50 |
| --- | --- | --- |
| CCOC(=O)CN1C(=O)NC(C)(c2ccccc2)C1=O (stereo not given) | > 100 µM |  |
| COc1ccc(-c2sc(Br)c3c2C(=O)C2OC(=O)NC32)cc1OC (stereo not given) | > 100 µM |  |
| O=S1(=O)c2ccccc2N(c2ccccc2)c2nnnn21 | > 100 µM |  |
| O=C1CSC(c2ccccc2O)N1c1ccc2c(c1)Oc1c(Cl)c3c(c(Cl)c1=N2)Oc1cc(N2C(=O)CSC2c2ccccc2O)ccc1N=3 (stereo not given) | > 100 µM |  |
| O=c1nc2sc3ccccc3c(=O)n2[nH]1 | > 100 µM |  |
| COc1ccccc1-n1nnc2c(N)nc(N)nc21 | > 100 µM |  |
| O=C(Oc1ccccc1)N(c1ccccc1)c1ccccc1 | > 100 µM | 61.2 µM |
| Oc1ccc2c(=S)cc(-c3ccc(Br)cc3)oc2c1O | 6.37 µM | 1.89 µM |
| Cc1ccc(N2C(=O)C3c4[nH]c5ccc(C)cc5c4C4CCC(C(C)(C)C)CC4C3C2=O)cc1 (stereo not given) | > 100 µM |  |
| C=C1CC[C@@H]2C13[C@@H]1[C@H](CC(=O)[C@@]23C)C1(C)C (stereo not given in full) | > 100 µM |  |
| O=C(Nc1ccncc1)C(=O)c1cn(S(=O)(=O)c2cccc(Cl)c2)c2ccccc12 | > 100 µM | > 100 µM |
| CC(=O)OCC1OC(n2c(C)c(C(C)=O)c(-c3ccco3)c(C#N)c2=S)C(OC(C)=O)C(OC(C)=O)C1OC(C)=O (stereo not given) | > 100 µM |  |
| COc1cc(-c2nn(-c3ccc(NC(=O)Nc4cc(C(F)(F)F)cc(C(F)(F)F)c4)cc3)cc2-c2ccncc2)ccc1Cl | 6.09 µM | 2.3 µM |
| O=C(O)C1C=CCN1C(=O)C1C=CCN1C(=O)C1C=CCN1 (stereo not given) (H-[ΔPro]-[ΔPro]-[ΔPro]-OH; configuration not given here) | > 100 µM |  |
| COc1cccc2c1C(=O)c1c(O)c3c(c(O)c1C2=O)C[C@@](O)(/C(CO)=N/NC(=O)CCCCCN1C(=O)C=CC1=O)C[C@@H]3O[C@H]1C[C@H](N)[C@H](O)[C@H](C)O1 | > 82.2 µM | 2.79 µM |
| C/C=C/C(=O)Oc1cccc2cccnc12 | > 88.2 µM |  |
| COc1cccc(NC(=O)CSc2nnc(Cc3ccccc3)o2)c1 | > 100 µM |  |
| C/C(=C\COP(=O)(O)OP(=O)(O)O)CCCCCCOCc1ccccc1 | > 100 µM |  |
| Cn1nnc2c(C(N)=S)ncn2c1=O | > 100 µM |  |
| O=C1c2ccccc2C(=O)N1CCCOCc1c[nH]c(=O)[nH]c1=O | > 100 µM |  |
| O=C(/C=C/c1ccc(Cl)c(Cl)c1)c1ccccc1Cl | 36 µM |  |
| CC(Br)CN1CCOCC1 (stereo not given) | > 100 µM |  |
| CCN(CC)CCNc1ccc2ncn3c4ccc(OC)cc4c(=O)c1c23 | 18.8 µM |  |

| Compound | TGI | GI50 |
| --- | --- | --- |
| O=c1[nH]c(=O)c2c([nH]1)[nH]c1ccc(Br)cc12 | > 100 µM |  |
| CC1(c2ccccc2)O[C@@H]2C[C@H]3[C@@H]4CCC5=CC(=O)C=C[C@]5(C)[C@@]4(F)[C@@H](O)C[C@]3(C)[C@]2(C(=O)CO)O1 (stereo not given in full) | 37.8 µM |  |
| O=C(O)CCC(c1ccccc1)(c1ccccc1)c1ccccc1 | > 100 µM |  |
| CC12OC(CC(O)C1O)n1c3ccccc3c3c4c(c5c6ccccc6n2c5c31)C(=O)N(CCN1CCOCC1)C4=O (stereo not given) | 9.15 µM | 1.76 µM |
| C[N+](C)(C)CC(=O)N/N=C(\Cc1nc2ccc([N+](=O)[O-])cc2[nH]c1=O)C(=O)Nc1nc2ccc([N+](=O)[O-])cc2s1 | > 100 µM |  |
| CCOC(=O)C1=C(C)N(c2ccc(Cl)cc2)C2(O)C=CC(=O)C3=C(O)c4ccccc4C(=O)C312 (stereo not given) | 35 µM |  |
| CSc1c(C#N)c(=O)n(N)c2c1c(C)nn2-c1ccccc1 | 85.1 µM |  |
| COc1cc(C(=O)/C=C/c2cc(-c3ccc4c(c3)OCO4)n[nH]2)cc(OC)c1OC | 6.25 µM | 2.1 µM |
| CN1CCC2(c3ccccc3)CC(=O)/C(=C/c3ccc(Cl)c(Cl)c3)C1C2 (stereo not given) | 15.7 µM |  |
| Cc1ccc(S(=O)(=O)OCOS(=O)(=O)c2ccc(C)cc2)cc1 | > 100 µM |  |
| C=CCn1c2ccccc2c2c3c(c4c5ccccc5n(CC=C)c4c21)C(=O)N(O)C3=O | > 100 µM | 5.5 µM |
| Cn1c(=O)c2ccccc2[n+]2c(-c3cccc([N+](=O)[O-])c3)csc12 | > 100 µM |  |
| C=C1c2nc3ccccc3n2C=C(c2cccc(Cl)c2)N1Cc1ccc(OC)cc1 | > 100 µM | 6.58 µM |
| CN(C)[C@@H]1C(=O)C(C(=O)NCNc2nc3n[nH]nc3c(=O)[nH]2)=C(O)[C@@]2(O)C(=O)C3=C(O)c4c(O)cccc4[C@@](C)(O)[C@H]3C[C@@H]12 | > 100 µM |  |
| C#C[C@@]1(O)[C@@H](CO)O[C@@H](n2cc(Br)c3c(Cl)ccnc32)[C@@H]1O | > 100 µM | 0.485 µM |
| Cc1ccc(/C=N/NC(=O)c2ccccc2Oc2ccccc2)o1 | > 100 µM | > 96.5 µM |
| CC(=O)NS(=O)(=O)c1ccc(NCc2cccc3c(=O)c4ccc(Cl)cc4oc23)cc1 | > 100 µM |  |
| ICC1CCCO1 (stereo not given) | > 100 µM |  |
| O=S1SC(=S)C2C=CC=NC21 (stereo not given) | > 100 µM |  |
| Nc1[nH]nc2nc(-c3cc(Cl)ccc3Cl)cc(-c3ccc(F)cc3)c12 | 90 µM | 29 µM |
| COc1cc2c(cc1OC)C(C(CCCCCC(CCC(C)C)C1NCCc3cc(OC)c(OC)cc31)CCC(C)C)NCC2 (stereo not given) | 3.26 µM | 1.67 µM |
| C/C(O)=C(\C=N\C(=S)N=Nc1c(O)[nH]c2ccccc12)C(=O)Nc1ccccc1C | > 100 µM |  |
| Clc1cccc(-c2nc3cccc4c3n2Cc2ncccc2-4)c1 | > 100 µM |  |

| Compound | TGI | GI50 |
| --- | --- | --- |
| CCO/C(O)=C(/C(=N)N1CCOCC1)C(=O)NC(C)C | > 100 µM |  |
| Cc1cc(=O)oc2c1cc1ccc3cccc4ccc2c1c34 | > 100 µM |  |
| O=C(OCc1ccccc1)C(Cc1ccc(OCc2ccccc2)cn1)NC(=O)C(F)(F)F (stereo not given) | > 100 µM |  |
| CCN1CCN(c2nc(C)cc(NCc3cc(Nc4ccnc5cc(Cl)ccc45)ccc3F)n2)CC1 | 6.81 µM | 1.7 µM |
| CC1(C)OCC(CO)(CO)CO1 | > 100 µM |  |
| Cc1sc(C(=O)c2cncnc2N[C@@H]2C[C@H](COS(N)(=O)=O)[C@@H](O)C2)cc1[C@@H]1NCCc2ccc(Cl)cc21 | 23.8 µM | 11.5 µM |
| CC(C)(C)[Si](C)(C)OCC1OC(n2cnc3c(=O)[nH]cnc32)CC1O (stereo not given) | > 100 µM |  |
| C=C1C(=O)O[C@H]2[C@H]1CC/C(COC(=O)c1cccnc1N)=C\CC[C@@]1(C)O[C@@H]21 | 26.2 µM | 10.5 µM |
| CC(O)CNC(=O)Nc1c(C(F)(F)F)cc(-c2ccccc2)[nH]c1=O (stereo not given) | > 100 µM |  |
| C=C(C)[C@H]1CC[C@@]23O[C@@H]2[C@@H](C[C@@]2(C)CC(=O)[C@H](CC(=O)C1)O2)OC(=O)[C@@]12CC[C@H](C(=C)C)CC(=O)C[C@H]4O[C@](C)(CC4=O)C[C@@H](OC3=O)[C@@H]1O2 | > 100 µM |  |
| CCC12C=CCN(CCc3c([nH]c4ccccc34)/C=C\1)C2 (stereo not given) | > 100 µM |  |
| c1ccc2sc(SSSc3nc4ccccc4s3)nc2c1 | > 100 µM |  |
| CC1=CC(=O)N(c2cccc3c(N4C(=O)C=C(C)C4=O)cccc23)C1=O | > 100 µM | > 61.2 µM |
| O=C(O)c1ccc2c(c1)C(=O)N(c1ccc(S(=O)(=O)c3ccc(N4C(=O)c5ccc(C(=O)O)cc5C4=O)cc3)cc1)C2=O | > 100 µM |  |
| N#Cc1c(Cl)cc(C#N)n2c1nc1ccccc12 | 63 µM |  |
| c1ccc(C2=NOC3C4CCC(C4)C23)cc1 (stereo not given) | > 100 µM |  |
| CNC(=O)ON(C(C)=O)C(=O)NC | 221 µM |  |
| CCN(CC)C(=O)CCn1cc(F)c(=O)[nH]c1=O | > 100 µM |  |
| NS(=O)(=O)c1nnc(NS(=O)(=O)c2ccccc2[N+](=O)[O-])s1 | > 100 µM |  |
| COc1ccc(N2C(=O)C(Cl)C2c2cc3cc(Br)ccc3nc2Cl)cc1 (stereo not given) | > 25 µM |  |
| CC(=O)Nc1cc(Cl)cc(Cl)c1O | > 100 µM |  |
| COc1ccc2c(c1)CCc1c-2[nH]c2cc3c(cc2c1=O)OCO3 | > 100 µM |  |
